Structures are written as SMILES. About 14,000 (4.5%) of roughly 310,000 compounds showed an effect of 50% or more. Effects have a minus sign here. The list shows a part of the results.
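Note: peak tail current of the secondary pulse compared with the same well before compound.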

Chain of human ether-à-go-go-related gene (hERG) potassium channel (Q12809 whole entry, looked up): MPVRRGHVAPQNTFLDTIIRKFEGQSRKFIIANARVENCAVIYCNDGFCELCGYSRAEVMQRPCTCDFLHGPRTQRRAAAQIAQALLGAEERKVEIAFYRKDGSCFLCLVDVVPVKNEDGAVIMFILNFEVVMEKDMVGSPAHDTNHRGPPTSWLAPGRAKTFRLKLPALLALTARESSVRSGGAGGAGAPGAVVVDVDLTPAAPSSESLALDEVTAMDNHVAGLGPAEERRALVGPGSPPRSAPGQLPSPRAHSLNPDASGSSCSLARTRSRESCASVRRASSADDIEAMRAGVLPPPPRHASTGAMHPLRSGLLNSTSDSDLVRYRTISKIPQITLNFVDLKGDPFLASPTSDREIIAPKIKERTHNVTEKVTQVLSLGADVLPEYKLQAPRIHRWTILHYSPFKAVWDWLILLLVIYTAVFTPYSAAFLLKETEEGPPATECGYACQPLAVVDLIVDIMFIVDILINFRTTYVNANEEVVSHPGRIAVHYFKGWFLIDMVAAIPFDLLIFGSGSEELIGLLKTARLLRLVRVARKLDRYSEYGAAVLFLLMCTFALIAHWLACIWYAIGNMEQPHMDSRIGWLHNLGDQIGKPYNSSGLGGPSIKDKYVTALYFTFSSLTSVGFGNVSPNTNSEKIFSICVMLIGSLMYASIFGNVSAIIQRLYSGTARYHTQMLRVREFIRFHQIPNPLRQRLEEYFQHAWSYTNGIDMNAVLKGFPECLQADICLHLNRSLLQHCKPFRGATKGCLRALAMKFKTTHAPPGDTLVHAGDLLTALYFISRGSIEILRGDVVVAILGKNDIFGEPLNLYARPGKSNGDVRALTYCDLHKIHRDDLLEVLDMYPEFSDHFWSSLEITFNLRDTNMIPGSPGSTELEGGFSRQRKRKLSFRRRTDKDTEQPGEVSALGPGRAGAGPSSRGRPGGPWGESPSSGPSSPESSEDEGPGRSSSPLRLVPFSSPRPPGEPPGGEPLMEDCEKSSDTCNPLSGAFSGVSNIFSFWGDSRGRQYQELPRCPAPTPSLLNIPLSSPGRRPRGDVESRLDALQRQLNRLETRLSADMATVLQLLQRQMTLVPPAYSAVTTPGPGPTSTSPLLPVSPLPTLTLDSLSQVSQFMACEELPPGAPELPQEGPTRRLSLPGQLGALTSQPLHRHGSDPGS

This test concerns the target human ether-à-go-go-related gene (hERG) potassium channel (human, UniProt Q12809). The test is described as follows: primary screen, population patch clamp on CHO cells stably expressing hERG.
In the case of `COc1ccccc1OCC(=O)Nc1ccc(S(=O)(=O)NC(C)=O)cc1`, the “hERG current change (%, negative = inhibition) at 10uM” value is reported as 13.3%. Turning to `O=S(=O)(Nc1c(O)ccc2ccccc12)c1ccc(F)cc1`, the “hERG current change (%, negative = inhibition) at 10uM” value is given as -17.7%.

On to `Cc1nnc(SCC(=O)NC23CC4CC(CC(C4)C2)C3)n(N)c1=O`, for which the “hERG current change (%, negative = inhibition) at 10uM” value came to 10.1%.

For `O=C(CSc1ccc(-c2nc3ccccc3[nH]2)cn1)N1CCN(C(=O)c2ccco2)CC1`, the “hERG current change (%, negative = inhibition) at 10uM” value is on record as -68.4%. Consider `Cc1sc2ncn(CC(=O)OC(C)C(=O)NC(C)(C)C)c(=O)c2c1C` (centres unmarked), for which the “hERG current change (%, negative = inhibition) at 10uM” value is 12.8%. Consider `Cc1nn(C)c(C(=O)N/N=C/c2ccccn2)c1[N+](=O)[O-]`, for which the “hERG current change (%, negative = inhibition) at 10uM” value was 21.3%.

As for `COc1ccc(C/C(O)=C(\C#N)c2nc3ccccc3[nH]2)cc1OC`, the “hERG current change (%, negative = inhibition) at 10uM” value is reported as 21.9%. Next, `O=C(O)C(=O)O.c1cc2c(cc1OCCNC1CCCC1)CCC2`: 0.00128%; `COc1ccc(/C=N/OCC(=O)NCc2cccs2)c(OC)c1`: -0.849%.

As to `CCC(=O)NCc1c(C)c(C)n(Cc2ccccc2)c1-n1cccc1`, the “hERG current change (%, negative = inhibition) at 10uM” value is 0.898%.

Turning to `CCn1c(CC(=O)Nc2ccc(Cl)c(Cl)c2)nnc1SCc1ccc(Cl)cc1`, the “hERG current change (%, negative = inhibition) at 10uM” value stood at 5.87%. In the case of `CCOC(=O)Cc1csc(SC(C)C(=O)NCC(=O)Nc2ccc(F)c(F)c2F)n1` (centres unmarked), the “hERG current change (%, negative = inhibition) at 10uM” value worked out at 14.9%. Next, `Cc1cc(C)cc(NC(=O)N2CCCC2C(=O)Nc2ccc(-n3cnnn3)cc2)c1` (centres unmarked): -54.1%; `O=C(NCc1ccc(C(F)(F)F)cc1)C12CN(Cc3ccccc3)CC1C(c1cccc([N+](=O)[O-])c1)=NO2` (centres unmarked): 10.2%. Next, `Cc1ccc2c(C(=O)N3CCN(c4ccccc4)CC3)cc(-c3cccnc3)nc2c1C`: 4.03%. Next, `COc1ccc(C(=O)O)cc1S(=O)(=O)N1CCSCC1`: 18.4%; `NNC(=O)c1csc(COc2cc(Cl)cc(Cl)c2)n1`: 12.2%; `CC(C)CN(C(=O)c1ccco1)c1nc2ccccc2s1`: 17.1%. With `N#CCCN(C(=O)Cn1nc(C(=O)O)c2ccccc2c1=O)c1ccccc1`, the “hERG current change (%, negative = inhibition) at 10uM” value stood at 4.44%. In the case of `c1cncc(Nc2nc(-c3cccs3)cs2)c1`, the “hERG current change (%, negative = inhibition) at 10uM” value came to 0.287%.

Turning to `COc1cc(CC(=O)Nc2ccc(S(=O)(=O)Nc3ncccn3)cc2)cc(OC)c1OC`, the “hERG current change (%, negative = inhibition) at 10uM” value is listed as 11.1%.

Turning to `CC(=O)c1ccc(OCC(O)CN2CCN(c3ccc(F)cc3)CC2)cc1.Cl` (centres unmarked), the “hERG current change (%, negative = inhibition) at 10uM” value is -67.4%. Next, `COc1ccc(C)cc1N(C(=O)c1ccccc1F)c1nc2ccccc2s1`: -6.53%; `CCOC(=O)C1=NN(c2ccccc2)C2C(=O)N(c3ccccc3OC)C(=O)C12` (centres unmarked): 14.5%. Regarding `CC/C(C)=C1\SC(N2CCN(C(C)=O)CC2)=NC1=O`, the “hERG current change (%, negative = inhibition) at 10uM” value is recorded as 7.56%. Next, `COc1ccc(CC(NC(C)=O)C(=O)NC2CCN(C(=O)c3cnccn3)CC2)cc1` (centres unmarked): -2.32%.

In the case of `CCS(=O)(=O)c1ccc2oc(SCC(=O)NC(C)C3CC4CCC3C4)nc2c1` (centres unmarked), the “hERG current change (%, negative = inhibition) at 10uM” value is listed as -30.3%.

Take `Cc1cccc(NS(=O)(=O)c2cc(C(=O)N3CCCCCC3)ccc2C)c1`: the “hERG current change (%, negative = inhibition) at 10uM” value is -13.6%. Next, `CCCNCCC(c1ccco1)c1ccccc1OC` (centres unmarked): -41.8%.

On to `C[C@]12CC[C@@H]3c4ccc(O)cc4CC[C@H]3[C@@H]1C[C@@H](O)[C@@H]2O[C@@H]1O[C@H](C(=O)O)[C@@H](O)[C@H](O)[C@H]1O`, for which the “hERG current change (%, negative = inhibition) at 10uM” value came to 14.6%. Next, `CC(=O)OC(C)=O`: 15.3%; `CCCCCCCCOc1ccc(C2CC(=O)NC2=O)cc1` (centres unmarked): 8.59%; `Cc1ccc(OCC(=O)Nc2ccc3c(c2)OCCO3)cc1C`: 6.88%. Next, `Fc1ccc(CNC(=S)Nc2ccc(Cl)cc2)cc1`: 9.6%; `C[C@H](O)C(=O)C1=Nc2c(nc(N)[nH]c2=O)NC1`: 19.9%. Next, `CCC1(C)Cc2ccccc2-c2nc(SCC(N)=O)[nH]c(=O)c21` (centres unmarked): 15.4%; `Cc1ccc(NC(=O)C2Cc3ccccc3CN2C(=O)c2ccco2)cc1S(=O)(=O)N(C)C` (centres unmarked): -20.2%. For `CSc1ccccc1C(=O)C1CCCN(Cc2c(C)n(C)n(-c3ccccc3)c2=O)C1` (centres unmarked), the “hERG current change (%, negative = inhibition) at 10uM” value was -16.2%. Next, `CCC(Sc1nc2c(c(=O)[nH]1)CCC2)C(=O)Nc1cccc(OC)c1` (centres unmarked): -7.58%; `C=CCNC(=O)c1ccccc1NC(=O)C1CC(=O)N(C(C)C)C1` (centres unmarked): 9.7%.

As for `O=C(CN1CCCC1)Nc1ccc(Cl)cc1C(F)(F)F`, the “hERG current change (%, negative = inhibition) at 10uM” value was 0.32%. Next, `Cc1ccc(SCC(=O)Nc2ccc(N3CCOCC3)cc2)cc1C`: 8.9%. On to `O=C(N/N=C/c1cccc([N+](=O)[O-])c1)c1cc2c(ccc3ccccc32)o1`, for which the “hERG current change (%, negative = inhibition) at 10uM” value worked out at 15.7%. Next, `COc1ccccc1NC(=O)NNC(=O)c1cc2ccccc2cc1O`: 19%.

(Values after article PMC4336329 (PLoS ONE, 2015).)
